Assay results as given in publication PMC5828529.
Substitutions are numbered along the chain they refer to. These are yes or no findings as the source states them, for the method shown. For some assays here: Binding seen in cells or lysates may run through a third protein. Some results given as binding are weak or reduced against the parent protein; the word gives no strength. Where a sequence is shown, tags or fusion partners need not be part of it. Blank lines part the entries; values can stand above or below the binder they belong to.

How the values were obtained:
[1] = biological target: T1, Set1 (two-hybrid fusion) (S. cerevisiae) (UniProt P38827); assay: two-hybrid; Gal4 activation domain and Gal4 DNA-binding domain N-terminal fusions in Y187 and AH109, mated; growth on medium without leucine, tryptophan and histidine
T1 sequence: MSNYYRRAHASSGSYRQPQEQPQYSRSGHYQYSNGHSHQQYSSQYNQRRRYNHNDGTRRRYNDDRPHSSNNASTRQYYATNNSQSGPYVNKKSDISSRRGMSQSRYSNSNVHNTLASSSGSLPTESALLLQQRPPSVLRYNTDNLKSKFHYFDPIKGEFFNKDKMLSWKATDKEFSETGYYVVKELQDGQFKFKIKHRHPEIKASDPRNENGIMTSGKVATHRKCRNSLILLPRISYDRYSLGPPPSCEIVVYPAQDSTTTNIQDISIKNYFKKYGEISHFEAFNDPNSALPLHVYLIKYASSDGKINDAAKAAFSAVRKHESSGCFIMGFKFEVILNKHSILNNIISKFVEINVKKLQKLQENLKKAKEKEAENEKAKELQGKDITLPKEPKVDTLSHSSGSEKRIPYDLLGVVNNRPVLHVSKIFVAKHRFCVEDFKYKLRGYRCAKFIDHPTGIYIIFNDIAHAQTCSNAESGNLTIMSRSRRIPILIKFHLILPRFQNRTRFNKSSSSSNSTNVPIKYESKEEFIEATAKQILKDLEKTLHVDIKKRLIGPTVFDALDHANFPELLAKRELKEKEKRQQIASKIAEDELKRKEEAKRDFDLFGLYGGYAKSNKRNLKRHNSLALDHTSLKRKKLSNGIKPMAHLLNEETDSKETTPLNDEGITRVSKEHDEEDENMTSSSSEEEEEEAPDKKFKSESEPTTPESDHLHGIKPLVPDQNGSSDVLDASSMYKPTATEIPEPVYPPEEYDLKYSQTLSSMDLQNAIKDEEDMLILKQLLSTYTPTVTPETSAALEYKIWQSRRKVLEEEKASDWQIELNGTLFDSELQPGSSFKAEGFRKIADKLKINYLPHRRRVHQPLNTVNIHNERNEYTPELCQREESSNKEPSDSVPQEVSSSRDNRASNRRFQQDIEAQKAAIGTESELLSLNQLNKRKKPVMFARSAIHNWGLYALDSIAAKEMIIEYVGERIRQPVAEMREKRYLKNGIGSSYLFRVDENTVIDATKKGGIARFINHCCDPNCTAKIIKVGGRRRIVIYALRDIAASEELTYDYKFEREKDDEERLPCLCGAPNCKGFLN

[2] = biological target: T2, Mer2-Flag (S. cerevisiae) (UniProt P21651); assay: co-IP; Mer2-Flag precipitated with anti-FLAG M2 magnetic beads from cells at 3.5 hr in meiosis, eluted with Flag peptide; lysis buffer 150 mM NaCl, 0.5% Triton X-100, benzonase; western blot
T2 sequence: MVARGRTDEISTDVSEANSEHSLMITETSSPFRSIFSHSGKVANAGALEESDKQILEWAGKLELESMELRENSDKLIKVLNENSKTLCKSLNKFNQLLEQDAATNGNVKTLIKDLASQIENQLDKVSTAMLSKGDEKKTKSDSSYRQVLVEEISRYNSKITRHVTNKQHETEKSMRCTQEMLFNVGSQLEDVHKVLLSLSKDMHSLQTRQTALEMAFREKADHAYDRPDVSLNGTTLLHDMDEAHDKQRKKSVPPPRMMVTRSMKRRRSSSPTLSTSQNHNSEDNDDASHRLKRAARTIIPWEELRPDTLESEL

[3] = biological target: T3, Mer2 V195D (two-hybrid fusion) (S. cerevisiae) (UniProt P21651); assay: two-hybrid; Gal4 activation domain and Gal4 DNA-binding domain N-terminal fusions in Y187 and AH109, mated; growth on medium without leucine, tryptophan and histidine
T3 sequence: T2 sequence with V195D

[4] = biological target: T4, Mer2 (two-hybrid fusion) (S. cerevisiae) (UniProt P21651); assay: as above
T4 sequence: T2 sequence

[5] = biological target: T5, Spp1-TAP (S. cerevisiae) (UniProt Q03012); assay: co-IP; Spp1-TAP captured on PanMouse IgG magnetic beads from SET1 cells, vegetative or meiotic, eluted by Tev cleavage; lysis buffer 150 mM NaCl, 0.5% Triton X-100, benzonase; western blot with anti-HA, anti-Flag, anti-TAP
T5 sequence: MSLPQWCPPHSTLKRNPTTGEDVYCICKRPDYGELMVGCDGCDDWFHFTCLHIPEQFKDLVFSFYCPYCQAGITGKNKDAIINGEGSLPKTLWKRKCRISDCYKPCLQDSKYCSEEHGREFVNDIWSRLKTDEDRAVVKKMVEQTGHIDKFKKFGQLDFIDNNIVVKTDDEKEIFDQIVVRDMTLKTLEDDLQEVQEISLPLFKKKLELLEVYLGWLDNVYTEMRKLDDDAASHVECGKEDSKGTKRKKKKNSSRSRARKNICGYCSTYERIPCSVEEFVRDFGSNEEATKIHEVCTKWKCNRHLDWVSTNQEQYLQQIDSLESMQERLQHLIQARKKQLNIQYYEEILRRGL

[6] = biological target: T6, Swd1-HA (S. cerevisiae) (UniProt P39706); assay: co-IP; Swd1-HA precipitated with anti-HA 16B12 and Protein G magnetic beads from cells at 3.5 hr in meiosis; lysis buffer 150 mM NaCl, 0.5% Triton X-100, benzonase; western blot with anti-HA, anti-Myc, anti-Flag
T6 sequence: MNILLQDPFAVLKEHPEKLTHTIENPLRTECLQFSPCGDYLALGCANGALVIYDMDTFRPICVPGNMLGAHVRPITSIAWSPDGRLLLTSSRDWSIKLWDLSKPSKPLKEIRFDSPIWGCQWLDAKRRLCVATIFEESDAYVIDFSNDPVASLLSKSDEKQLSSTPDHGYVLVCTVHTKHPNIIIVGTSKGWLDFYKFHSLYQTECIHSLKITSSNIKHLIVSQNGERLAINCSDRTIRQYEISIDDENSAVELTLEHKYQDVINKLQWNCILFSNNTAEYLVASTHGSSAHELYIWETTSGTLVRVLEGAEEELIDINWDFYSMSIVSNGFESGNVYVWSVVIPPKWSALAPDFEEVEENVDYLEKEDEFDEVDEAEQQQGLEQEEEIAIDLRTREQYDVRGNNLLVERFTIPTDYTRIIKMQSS

B3: Spp1 (two-hybrid fusion) (protein, UniProt Q03012 1-353)
chain: T5 sequence
binding [3]: no binding | binding [1]: binds | binding [4]: binds

B4: Spp1∆263–266 (two-hybrid fusion) (protein, UniProt Q03012)
chain: MSLPQWCPPHSTLKRNPTTGEDVYCICKRPDYGELMVGCDGCDDWFHFTCLHIPEQFKDLVFSFYCPYCQAGITGKNKDAIINGEGSLPKTLWKRKCRISDCYKPCLQDSKYCSEEHGREFVNDIWSRLKTDEDRAVVKKMVEQTGHIDKFKKFGQLDFIDNNIVVKTDDEKEIFDQIVVRDMTLKTLEDDLQEVQEISLPLFKKKLELLEVYLGWLDNVYTEMRKLDDDAASHVECGKEDSKGTKRKKKKNSSRSRARKNISTYERIPCSVEEFVRDFGSNEEATKIHEVCTKWKCNRHLDWVSTNQEQYLQQIDSLESMQERLQHLIQARKKQLNIQYYEEILRRGL
binding [4]: binds

B5: Mer2-Flag (protein, UniProt P21651 1-314)
chain: T2 sequence
binding [5]: binds | binding [6]: no binding

B8: Swd2 (two-hybrid fusion) (protein, UniProt P36104 1-329)
chain: MTTVSINKPNLLKFKHVKSFQPQEKDCGPVTSLNFDDNGQFLLTSSSNDTMQLYSATNCKFLDTIASKKYGCHSAIFTHAQNECIYSSTMKNFDIKYLNLETNQYLRYFSGHGALVNDLKMNPVNDTFLSSSYDESVRLWDLKISKPQVIIPSLVPNCIAYDPSGLVFALGNPENFEIGLYNLKKIQEGPFLIIKINDATFSQWNKLEFSNNGKYLLVGSSIGKHLIFDAFTGQQLFELIGTRAFPMREFLDSGSACFTPDGEFVLGTDYDGRIAIWNHSDSISNKVLRPQGFIPCVSHETCPRSIAFNPKYSMFVTADETVDFYVYDE
binding [1]: binds

The next lines start with the values.

binding [1]: binds
B1: Shg1 (two-hybrid fusion) (protein, UniProt P38337 1-142)
chain: MAYNQEDSKRLSDKYKKEGHFDKLKREILSNPWNNTEENSESFEQALRKRVASTVKEMVNEDEELIFKNRGLTSALIESQLVKDNYLKLGSKMEGDNGDGEKKFDLDVYVRSKLQDPKLLEMIKGQLQETLNSYEEEANGST

binding [2]: binds
B2: Spp1-Myc (protein, UniProt Q03012 1-353)
chain: T5 sequence

binding [5]: no binding
B6: Mer2_sid-Flag (protein, UniProt P21651 1-314)
chain: T2 sequence with V195D

binding [2]: no binding
B7: Swd1-HA (protein, UniProt P39706 1-426)
chain: T6 sequence
